Where a name gives a salt, the structure may show the parent alone. ± gives the standard deviation of the averaged measurements. Over roughly 3,200 compounds, “nuclei count (viability) relative to DMSO” has its median near 99; the lowest 2% begin near 16. This is one part of the list.
What follows are compounds tested on U2OS (assay: nuclei count (viability) relative to DMSO (% of DMSO); higher = more viable cells). Conditions: 10 µM; 24 h.
Method: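 Primary image-based screen in U2OS cells: compounds at 10 uM for 24 h, then a 1 h o-propargyl-puromycin (OPP) pulse, click labelling, and high-throughput microscopy. Mean cytoplasmic OPP intensity and nuclei count were normalised to DMSO wells within each plate (DMSO = 100) and averaged over triplicate plates.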

Compound	nuclei count
CCN(CC)C(C)C(=O)c1ccccc1 (centres undefined) [Amfepramone hydrochloride]	107
C[C@]12N[C@H](Cc3ccccc31)c1ccccc12 [Dizocilpine maleate]	99.3
C[N+]1([O-])[C@@H]2C[C@@H](OC(=O)[C@H](CO)c3ccccc3)C[C@H]1[C@@H]1O[C@@H]12 (some centres undefined) [Scopolamin-N-oxide hydrobromide]	101
Oc1cc(Cl)ccc1Oc1ccc(Cl)cc1Cl [Triclosan]	107
CC1(C)C(C=C(Cl)Cl)C1C(=O)OC(C#N)c1cccc(Oc2ccccc2)c1 (centres undefined) [Cypermethrin]	105
CC(C)n1cnc2c(C(=O)N[C@H]3CN4CCC3CC4)cc(Cl)cc21	96.2
C[C@](O)(COc1ccc(C#N)cc1)C(=O)Nc1ccc(C#N)c(C(F)(F)F)c1 [Ostarine (MK-2866)]	108
CCCN(CCC)C1CCc2ccc(O)cc2C1 (centres undefined) [7-Hydroxy-DPAT hydrobromide]	112
CC(=O)Nc1ccc(OC[C@](C)(O)C(=O)Nc2ccc([N+](=O)[O-])c(C(F)(F)F)c2)cc1 [Andarine (GTX-007)]	97.6
Oc1cc2c(cc1O)[C@H]1c3ccccc3CN[C@@H]1CC2 (racemic) [Dihydrexidine hydrochloride]	89.3
CC(=O)O[C@H]1C[C@H](O[C@H]2[C@@H](O)C[C@H](O[C@H]3[C@@H](O)C[C@H](O[C@H]4CC[C@@]5(C)[C@H](CC[C@@H]6[C@@H]5C[C@@H](O)[C@]5(C)[C@@H](C7=CC(=O)OC7)CC[C@]65O)C4)O[C@@H]3C)O[C@@H]2C)O[C@H](C)[C@H]1O[C@@H]1O[C@H](CO)[C@@H](O)[C@H](O)[C@H]1O [Lanatoside C]	18.1
COc1ccc(CCN2CCC(Nc3nc4ccccc4n3Cc3ccc(F)cc3)CC2)cc1 [Astemizole]	79.5 ± 1.6
CC(N)Cc1c[nH]c2ccc(O)cc12 (centres undefined) [_-Methyl-5-hydroxytryptamine maleate]	107
Oc1ccc2c3c1O[C@H]1c4c(c5ccccc5n4Cc4ccccc4)C[C@@]4(O)C(C2)N(CC2CC2)CC[C@]314 [N-Benzylnaltrindole hydrochloride]	83.2
BrC1C(Br)C(Br)C(Br)C(Br)C1Br (centres undefined) [1,2,3,4,5,6-Hexabromocyclohexane]	90.6
Fc1ccc(C(OCCN2CCN(CCCc3ccccc3)CC2)c2ccc(F)cc2)cc1	92.6 ± 3.9
CC(C)(C)NCC(O)c1cc(Cl)c(N)c(Cl)c1 (centres undefined) [Clenbuterol hydrochloride]	106
C=C(C)[C@H]1Cc2c(ccc3c2O[C@@H]2COc4cc(OC)c(OC)cc4[C@@H]2C3=O)O1 [Rotenone]	26.3
COC(=O)C1=CCCN(C)C1 [Arecoline]	107
CC(CN)CC(=O)O (centres undefined) [3-Methyl-GABA]	104
CNCC(=O)c1ccc(O)c(O)c1 [Adrenalone HCl]	101
CC(C)N(CCNC(=O)CN1CCCC1=O)C(C)C [Pramiracetam]	101
CC(C)(c1ccc(OCC2CO2)cc1)c1ccc(OCC2CO2)cc1 (centres undefined)	86.6 ± 6.1
CCC1(CC)C(=O)C=CNC1=O [Pyrithyldione]	92
CCCOc1ccc2[nH]cc(C3=CCNCC3)c2n1	93

Compound	nuclei count
COc1ccc(Cc2nccc3cc(OC)c(OC)cc23)cc1OC [Papaverine hydrochloride]	94
O=C1CSC(c2ccccc2Cl)c2cc(Cl)ccc2N1 (centres undefined)	97.8
C[C@]12CC[C@H]3[C@@H](CC[C@@]45O[C@@H]4C(O)=C(C#N)C[C@]35C)[C@@H]1CC[C@@H]2O [Trilostane]	100
O=C(O)CNC(=O)c1c(O)c2ccccc2n(Cc2ccccc2)c1=O	97.7 ± 5.6
CCCN(C/C=C/I)C1CCc2ccc(O)cc2C1 (centres undefined) [7-Hydroxy-PIPAT maleate]	98.3
CC(=O)OC1CN2CCC1CC2 (centres undefined) [Aceclidine Hydrochloride]	99.4
NC1(c2ccccc2Cl)CCCCC1=O (centres undefined) [Norketamine hydrochloride]	100
O=C1NC(=O)c2c1c1c3ccccc3[nH]c1c1[nH]c3ccccc3c21 [Arcyriaflavin A]	86.4
COc1cccc(C2(O)CCCCC2CN(C)C)c1 (centres undefined) [Tramadol hydrochloride]	107
CC(CCc1ccccc1)NC(C)C(O)c1ccc(O)cc1 (centres undefined) [Nylidrin]	112
C[N+]1(C)[C@@H]2CC[C@H]1C[C@@H](OC(=O)C(CO)c1ccccc1)C2 (some centres undefined) [Methylatropine nitrate]	102
CN1C[C@H](C(=O)N[C@]2(C)O[C@@]3(O)[C@@H]4CCCN4C(=O)[C@H](Cc4ccccc4)N3C2=O)C[C@@H]2c3cccc4[nH]cc(c34)C[C@H]21 [Dihydroergotamine mesylate]	108
CN1C[C@H](C(=O)N[C@]2(C)O[C@@]3(O)[C@@H]4CCCN4C(=O)[C@H](Cc4ccccc4)N3C2=O)C[C@@H]2c3cccc4[nH]cc(c34)C[C@H]21 [Dihydroergotamine tartrate]	102
O=C1NCN(c2ccccc2)C12CCN(CC1COc3ccccc3O1)CC2 (centres undefined) [Spiroxatrine]	83.5
C[N+](C)(C)CCCCCCCCCC[N+](C)(C)C [Decamethonium bromide]	104
c1ccc2nc(N3CCNCC3)ccc2c1 [Quipazine dimaleate salt]	98.6
c1ccc2nc(N3CCNCC3)ccc2c1 [Quipazine dimaleate]	90.8
CCC(=O)O[C@@](Cc1ccccc1)(c1ccccc1)[C@@H](C)CN(C)C [Levopropoxyphene napsylate]	106
CN1CCN(c2ccc([N+](=O)[O-])c3no[n+]([O-])c23)CC1	96.9
CN1c2ccccc2C(NCCCCCCC(=O)O)c2ccc(Cl)cc2S1(=O)=O (centres undefined) [Tianeptine]	103
CN1c2ccccc2C(NCCCCCCC(=O)O)c2ccc(Cl)cc2S1(=O)=O (centres undefined) [Tianeptine sodium]	103
CC(C)C[C@@H](N)C1(c2ccc(Cl)cc2)CCC1	94
CC[C@@]1(O)C(=O)OCc2c1cc1n(c2=O)Cc2cc3ccccc3nc2-1 [Camptothecine (S,+)]	39.8
CC[C@@]1(O)C(=O)OCc2c1cc1n(c2=O)Cc2cc3ccccc3nc2-1 [Camptothecin]	31.2

— the supplement of paper PMC8183993
